B1: LINE1-full (parent)
chain: UACGUAGGUGGUUUUCCCCUGAUAGUGCUAAGGGGGCCUGGAAGUUUGGACUGGGCAGAGCUCAACACAGCGUGGCAAAGUGGCUGUGGCUAGACUGCCUCUCUGGAUUCCUCGUCACUCAGCAGGGCAUCUCUGAGAGAAAUGCC

Read counts are not given, so values of variants with three or more changes are uncertain.

The variants in this data set derive from B1. Kind of data set: self-cleavage, relative activity (ratio to wild type); higher = more cleavage; in vitro, sequencing; the parent is a self-cleaving ribozyme.
Consider UACGUAGGUGGUUCUCCCCUGAUAGUGCUACGGGGGCCUGGAAGUUUGGACUGGGCAGAGCUCAACACAGCGUGGCAAAGUGGCUGUGGCUAGACUGCCUCUCUGGAUUCCUCGUCACUCAGCAGGGCAUCUCUGAGUGAAAUGCC [U14C A31C A138U], for which the self-cleavage was 1.05.

For the variant UACGUAGGUGGUUCUCCCCUGGUAGUGCUAAGGGGGCCUGGAAGUUUGGACUGGGCAGAGCUCAACACAGCGUGGCAAAGUGGCUGUGGCUAGACUGCCUCUCUGGAUUCCUCGUCACUCAGCAGGGCAUCUCCGAGAGAAAUGCC [U14C A22G U134C], the self-cleavage stood at 1.2.

Consider UACGUAGGUGGUUCUCCCCUGGUAGUGCUAAGGGGGCCGGGAAGUUUGGACUGGGCAGAGCUCAACACAGCGUGGCAAAGUGGCUGUGGCUAGACUGCCUCUCUGGAUUCCUCGUCACUCAGCAGGGCGUCUCUGAGAGAAGUGCC [U14C A22G U39G A129G A142G], for which the self-cleavage was 0.

In the case of UACGUAGGUGGUUCUCCCCUGGUAGUGCUAAGGGGGCCUGGAAGUUUGGACUGGGCAGAGCUCAACACAGCGUGGCAAGGUGGCUGUGGCUAGACUGCCUCUCUGGAAUCCUCGUCACUCAGCAGGGCAUCUCUGUGAGUAAUGCC [U14C A22G A79G U108A A136U A140U], the self-cleavage worked out at 0.

Turning to UACGUAGGUGGUUAUCCCCUGAUAGUGCUAAGGGGGCCUGGAAGUUUGGACUGGGCAGAGCACAACACAGCGUGGCAAAGUGGCUGUGGCUAGACUGCCUCUCUGGAUUCCUCGUCACUCAGCAGGGCAUCACUGAGAGAAAUGCC [U14A U62A U132A], the self-cleavage is 0.08.

For UACGUAGGUGGUUAUCCCCUGAUAGUGCUAAGGGGGCCUGGAAGUUUGGACUGGGCAGAGCUCAACACAGCGUGGCAAAGUGGCUGUGGCUAGACUGCCUCUCAGGAUUCCUCGUCACCCAGCAGGGCAUCUCUGAGAGAAAUGCC [U14A U104A U119C], the self-cleavage worked out at 1.63.

Turning to UACGUAGGUGGUUAUCCCCUGAUAGUGCUAAGGGGGCCUGGAAGUUUGGACUGGGCAGAGCUCAACACAGCGUGGCAAAGUGGCUGUGGCUAGACUGCCUCUCUGGAUUCCUCGCCACUCUGCAGGGCAUCUCUGAGAGAAAUGCC [U14A U115C A121U], the self-cleavage came to 1.16.

Turning to UACGUAGGUGGUUCUCCCCUGAUAGUGCUUAGGGGGCCUGGAAGUUUGGACUGGGCAGAGCUCAACACAGCGUGGCAAAGCGGCUGUGGCUAGACUGCCUCUCUGGAUUCCUCGCCACUCAGCAGGGCAUCUCUGAGAGAAAUGCC [U14C A30U U81C U115C], the self-cleavage turned out to be 0.

Regarding UACGUAGGUGGUUAUCCCCUGAUAGUGCUAAGGGGGCCUGGAAGUUUGGACUGGGCAGAGCUCAACACAGCGUGGCAAAGUGGCCGUGGCUAGACUGCCCCUCUGGAUUCCCCGUCACUCAGCAGGGCAUCUCUGAGAGAAAUGCC [U14A U85C U100C U112C], the self-cleavage was determined as 0.4.

Consider UACGUAGGUGGUUCUCCCCUGUUAGUGCUAAGGGGGCCUGGAAGUUUGGACUGGGCAGAGCUCAACACAGCGUGGCAAAGUGGCUGUGGCUAGACUGCCUCCCUGGAUUCCUCGUCACUCAGCAGGGCAUCUCUGAGAGAGAUGCC [U14C A22U U102C A141G], for which the self-cleavage was 1.16.

On to UACGUAGGUGGUUCUCCCCUGUUAGUGCUAAGGGGGCCUGGAAGUUUGGACCGGGCAGAGCUCAACACAGCGUGGCAAAGUGGCUGUGGCUAGACUGCCUCUCUGGAUUCCUCGUCACUCAGCAGGGCAUCUCUGAGAGAAAUGCC [U14C A22U U52C], for which the self-cleavage was found to be 1.87.

Regarding UACGUAGGUGGUUAUCCCCUGAUAGUGCUAAGGGGGCCUGGAAGUUUGGACUGGGCAGAGCUCAACACAGCGUGGCAAAGUGGCUGUGGCUAGACCGCCUCUCUGGAUUCCUCGUCACUCAGCAGGGCAUCUCUGAGAGAAGUGCC [U14A U96C A142G], the self-cleavage is 0.06.

Take UACGUAGGUGGUUCUCCCCUGAUUGUGCUAAGGGGGCCUGGAAGUUUGGACUGGGCAGAGCUCAACACAGCGUGGCAAAGUGGCUGUGGUUAGACUGCCUCUCUGGAUUCCUCGUCACUCUGCAGGGCAUCUCUGAGAGAAAUGCC [U14C A24U C90U A121U]: the self-cleavage was found to be 0.03.

Turning to UACGUAGGUGGUUAUCCCCUGAUAGUGCUAAGGGGGCCUGGAAGAUUGGACUGGGCAGAGCUCAACACAGCGUGGCAAAGUGGCUGUGGCUAGACUGCCUCUCUGGAUUCCUCGUCACUCAGCAGGGCAUCUCUGAGGGAAAUGCC [U14A U45A A138G], the self-cleavage was found to be 1.

Regarding UACGUAGGUGGUUCUCCCCUGAUAGUGCUGAGGGGGCCUGGAAGUUUGGACUGGGCGGAGCUCUACACAGCGUGGCAAAGUGGCUGUGGCUAGACUGCCUCUCUGGAUACCUCGUCACUCAGCAGGGCAUCUCUGAGAGAAAUGCC [U14C A30G A57G A64U U109A], the self-cleavage worked out at 0.3.

Regarding UACGUAGGUGGUUAUCCCCUGAUAGUGCUAAGGGGGCCUGGAAGUUUGGACUGGGCAGAGCUCAACACAGCGUGGCAAAGUGGCUGUGGCUAGACUGCCUCUCUGGAUCCCUCGUCACUCGGCAGGGCACCUCUGAGAGAAGUGCC [U14A U109C A121G U130C A142G], the self-cleavage stood at 1.02.

Consider UACGUAGGUGGUUCUCCCCUGGUAGUGCUAAGGGGGCCUGGAAGUUUGGACUGGGCAGAGCUCAACGCAGCGUGUCAAAGUGGCUGUGGCUAGACUGCCUCUCUGGAUUCCUCGUCACUCAGCAGGGCAUCUCUGAGAGAAAUGCC [U14C A22G A67G G75U], for which the self-cleavage worked out at 0.24.

On to UACGUAGGUGGUUCUCCCCUGGUAGGGCUAAGGGGGCCUGGAAGUUUGGACUGGGCAGAGCUCAACACAGCGUGGCAAAGUGGCUGUGGCUAGACUGCCUCUCUGGAUUCCUCGUCACUCAGCAGGGCAUCUCUGAGAGAAAUGCC [U14C A22G U26G], for which the self-cleavage is 0.53.

On to UACGUAGGUGGUUCUCCCCUGUUAGUGCUAAGGGGGCCUGGAAGUUUGGACUGGGCGGAGCUCAACACAGCGUGGCAAAGUGGCUGUGUCUAGACUGCCUCUCUGGAUUCCUCGUCACUCAGCAGGGCUUCUCUGAGAGGAAUGCC [U14C A22U A57G G89U A129U A140G], for which the self-cleavage was 0.07.

With UACGUAGGUGGUUCUCCCCUGGUAGUGCUAAAGGGGCCUGGAAGUUUGGACUGGGCAGAGCCCAACACUGCGUGGCAAAGUGGCUGUGGCUAGACUGCCUCUCUGGGUUCCUCGUCACUCAGCAGGGCAUCUCUGAGAGAAAUGCC [U14C A22G G32A U62C A69U A107G], the self-cleavage came to 0.11.

Values taken from the RNAGym collection of RNA variant scans (doi:10.7554/elife.90254).
